From article PMC4336329 (PLoS ONE, 2015)
The campaign covered roughly 310,000 compounds. About 2,200 (0.71%) showed an effect of 50% or more. Effects have a minus sign here. The list shows a part of the results.

Target: human ether-à-go-go-related gene (hERG) potassium channel (human, UniProt Q12809)
Experiment: primary screen, population patch clamp on CHO cells stably expressing hERG

Chain of human ether-à-go-go-related gene (hERG) potassium channel (Q12809 whole entry, looked up): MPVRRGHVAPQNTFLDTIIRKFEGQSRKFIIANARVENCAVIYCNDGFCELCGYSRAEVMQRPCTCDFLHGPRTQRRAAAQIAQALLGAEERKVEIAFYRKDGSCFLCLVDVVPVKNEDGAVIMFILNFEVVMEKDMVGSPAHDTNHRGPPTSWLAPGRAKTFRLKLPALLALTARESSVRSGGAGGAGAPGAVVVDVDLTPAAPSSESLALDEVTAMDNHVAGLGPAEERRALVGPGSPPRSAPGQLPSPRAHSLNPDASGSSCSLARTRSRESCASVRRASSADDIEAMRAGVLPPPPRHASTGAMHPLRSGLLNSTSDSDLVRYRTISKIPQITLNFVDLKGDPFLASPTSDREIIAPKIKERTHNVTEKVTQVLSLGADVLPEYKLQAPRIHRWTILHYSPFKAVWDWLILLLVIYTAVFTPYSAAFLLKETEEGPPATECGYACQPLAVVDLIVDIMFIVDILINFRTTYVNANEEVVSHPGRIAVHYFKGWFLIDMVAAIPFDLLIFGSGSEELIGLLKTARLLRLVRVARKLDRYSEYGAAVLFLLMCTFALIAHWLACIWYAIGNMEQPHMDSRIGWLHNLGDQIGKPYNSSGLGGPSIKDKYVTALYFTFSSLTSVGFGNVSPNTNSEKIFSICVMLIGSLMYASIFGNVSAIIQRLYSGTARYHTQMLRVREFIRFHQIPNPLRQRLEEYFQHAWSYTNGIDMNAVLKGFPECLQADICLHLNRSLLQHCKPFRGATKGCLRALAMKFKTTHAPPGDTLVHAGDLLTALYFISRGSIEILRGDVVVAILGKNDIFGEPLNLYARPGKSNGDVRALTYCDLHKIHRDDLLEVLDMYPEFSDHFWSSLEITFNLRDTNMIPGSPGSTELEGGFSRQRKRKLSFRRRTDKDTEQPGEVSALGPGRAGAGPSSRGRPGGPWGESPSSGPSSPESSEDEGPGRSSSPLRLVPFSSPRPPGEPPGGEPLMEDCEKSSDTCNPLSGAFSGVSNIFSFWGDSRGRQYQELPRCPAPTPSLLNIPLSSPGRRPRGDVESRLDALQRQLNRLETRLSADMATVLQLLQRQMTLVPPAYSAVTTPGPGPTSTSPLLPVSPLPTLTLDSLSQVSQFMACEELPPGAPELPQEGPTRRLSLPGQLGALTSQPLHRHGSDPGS

Going from `CC(C)(C)c1cc(Br)c(O)c(N=Nc2ccc(S(=O)(=O)N3CCOCC3)cc2)c1` to `O=C(COc1ccc(S(=O)(=O)N2CCOCC2)cc1)N1CCOCC1`, the “hERG current change (%, negative = inhibition) at 1uM” value rises from 7.41% to 8.17%.

First: Cc1cc(C)c(S(=O)(=O)NCCn2ccc3ccccc32)c(C)c1
Second: COc1ccc(CNC(=O)c2ccc(CS(=O)(=O)c3ccccc3C)o2)cc1
The “hERG current change (%, negative = inhibition) at 1uM” value of the first is higher: 16.1% for the first, 13.1% for the second.

Compared with `COc1ccccc1C/C(N)=N/OC(=O)COc1cccc2ccccc12`, `COc1ccc(CNC(=O)CN2C(=O)C(c3ccccc3)Oc3cccnc32)cc1` (stereo not drawn) is lower in “hERG current change (%, negative = inhibition) at 1uM” value: 0.942% for the first, -0.864% for the second.

Going from `Cc1n[nH]c(=O)n1-c1ccc(C(C)(C)C)cc1` to `CN(C)c1ccc(/C=C/C(=O)c2ccc(C(C)(C)C)cc2)cc1[N+](=O)[O-]`, the “hERG current change (%, negative = inhibition) at 1uM” value falls from 15.3% to 7.35%.

Compared with `CCCOc1ccc(CN(CCO)CCO)cc1C(=O)OC`, `CCCCCSc1cc(OC)c(CCN(C)C)cc1OC.O=C(O)/C=C\C(=O)O` is lower in “hERG current change (%, negative = inhibition) at 1uM” value: 17.9% for the first, -16.9% for the second.

Going from `COC(=O)c1[nH]c2cc(OC)ccc2c1NC(=O)CCN1CCCCC1` to `O=C(NCCN1CCCCC1)c1ccc(F)cc1Cl`, the “hERG current change (%, negative = inhibition) at 1uM” value rises from -10% to 18.7%.

Compared with `COC(=O)c1ccc(NS(=O)(=O)c2ccc(SC)cc2)cc1`, `CC(=O)Nc1ccc(S(=O)(=O)N(C)S(=O)(=O)c2ccc(F)cc2)cc1` is lower in “hERG current change (%, negative = inhibition) at 1uM” value: 5.48% for the first, -19.4% for the second.

First: CCOC(=O)c1cccc(NS(=O)(=O)c2c(C(=O)N3CCCCCC3)c(C)n(C)c2C)c1
Second: COc1ccc(S(=O)(=O)Nc2cccc(-c3ccc(N4CCCCCC4)nn3)c2)c(OC)c1
The “hERG current change (%, negative = inhibition) at 1uM” value of the first is lower: -6.05% for the first, 13.4% for the second.

First: CC(=O)Nc1ccc(NC(=O)C/C(C)=N/NC(N)=S)cc1
Second: COC(=O)c1cc(Br)ccc1NC(=O)Nc1ccc(C)cc1
The “hERG current change (%, negative = inhibition) at 1uM” value of the first is higher: 11.9% for the first, 9.97% for the second.

First: CCOC(=O)N1CCC(NC(=O)C2=CCN(S(=O)(=O)c3ccccc3)CC2)CC1
Second: O=C(CN1C(=O)c2ccccc2C1=O)Nc1ccccc1C(=O)NC1CCCCCC1
The “hERG current change (%, negative = inhibition) at 1uM” value of the first is higher: 14.7% for the first, 6.73% for the second.

Going from `CCN(CC)C(=O)C(=O)Nc1ccc(Oc2ccccc2)cc1` to `CCN(CC(=O)Nc1ccc(OC)cc1)C(=O)COc1cccc2c1OC(C)(C)C2`, the “hERG current change (%, negative = inhibition) at 1uM” value falls from 5.65% to 1.69%.

Going from `Oc1c(C=C2N=c3ccccc3=N2)sc(=S)n1-c1ccc(F)cc1` [17401255] to `OCCC1CN(Cc2cc3ccccc3o2)CCN1Cc1ccc(F)cc1` (stereo not drawn), the “hERG current change (%, negative = inhibition) at 1uM” value falls from 18.3% to 15.2%.

Going from `CC(C)S(=O)(=O)c1csc(NC(=O)Nc2ccc(Cl)cc2)c1` to `Cc1cccc(NC(=O)c2ccc3c(c2)CCN3S(C)(=O)=O)c1`, the “hERG current change (%, negative = inhibition) at 1uM” value rises from 8.55% to 12.7%.

Going from `COCCNC(=O)CCc1c(C)nc2c(c(C)nn2-c2ccc(C)cc2)c1C` to `COCCNCC(=O)Nc1ccc(OC(F)(F)F)cc1.Cl`, the “hERG current change (%, negative = inhibition) at 1uM” value falls from 9.04% to -13%.

First: Cc1c(C(=O)Nc2ccc3c(c2)OCCO3)cnn1C
Second: CCCCn1c(SCC(=O)c2ccc3c(c2)OCCO3)nnc1-c1ccco1
The “hERG current change (%, negative = inhibition) at 1uM” value of the first is higher: 16.4% for the first, 1.92% for the second.

First: NC(=O)c1ccc(-n2nnnc2Oc2ccccc2C(=O)N2CCOCC2)cc1
Second: COc1ccc(N2CCN(C(=O)COC(=O)Cc3ccc(F)cc3)CC2)cc1
The “hERG current change (%, negative = inhibition) at 1uM” value of the first is higher: 11.6% for the first, 3.73% for the second.

First: COCCn1c(SCC(=O)N2CCCC2=O)nc2sc(C)c(C)c2c1=O
Second: COCCn1c(SCC(=O)N2CCC(C)CC2)nc2ccccc2c1=O
The “hERG current change (%, negative = inhibition) at 1uM” value of the first is higher: 17.5% for the first, -57.9% for the second.

Compared with `CC1=C(C(N)=O)C(c2cccc(O)c2)n2nc(CCCO)nc2N1` (stereo not drawn), `CCOC(=O)C1=C(c2ccccc2)NC(=O)NC1c1ccc(O)c(OCC)c1` (stereo not drawn) is higher in “hERG current change (%, negative = inhibition) at 1uM” value: 11.3% for the first, 17.2% for the second.

First: Cc1cc(N2CCCC2)ccc1/C=C1/C(=O)N(C)C(=S)N1C
Second: O=C(Nc1ccc(N2CCCC2)cc1)C(c1ccccc1)c1ccccc1
The “hERG current change (%, negative = inhibition) at 1uM” value of the first is lower: 2.66% for the first, 11.5% for the second.

Compared with `COc1cc(CNCCSc2nnnn2C)cc(OC)c1OC.Cl`, `COc1cc(NC(=O)CSc2nc3ccccc3cc2C)c(C(=O)O)cc1OC` is higher in “hERG current change (%, negative = inhibition) at 1uM” value: 3.45% for the first, 9.58% for the second.

First: Cc1ccccc1-n1c(=O)n(CCc2ccccc2)c(=O)c2[nH]cnc21
Second: O=C(/C=C/c1c[nH]c2ccccc12)c1c(O)n(CCc2ccccc2)c(=O)[nH]c1=O
The “hERG current change (%, negative = inhibition) at 1uM” value of the first is lower: 11.4% for the first, 18.9% for the second.

Compared with `O=CN1c2ccccc2CSc2ccccc21`, `O=C(NCC1(c2ccccc2)CCCC1)c1ccccc1` is higher in “hERG current change (%, negative = inhibition) at 1uM” value: 7.97% for the first, 8.99% for the second.

Compared with `CCCc1cc(C(=O)NCC(C)C)no1`, `CSc1ccccc1OCc1cc(C(=O)NCCn2ccnc2C)no1` is lower in “hERG current change (%, negative = inhibition) at 1uM” value: 6.06% for the first, 2.35% for the second.

Compared with `COc1ccc(OC)c(-c2nn(-c3ccccc3)cc2C(=O)NCC2CCCO2)c1` (stereo not drawn), `COc1cccc(CN2CCC(n3nccc3NC(=O)CCOc3ccccc3)CC2)c1` is lower in “hERG current change (%, negative = inhibition) at 1uM” value: 9.47% for the first, -26.2% for the second.

Going from `Cn1cnnc1SCC(=O)Nc1nc(-c2ccc(F)cc2)cs1` to `CCN(CC(=O)NCc1ccc(F)cc1)Cc1cc(=O)n2ccsc2n1`, the “hERG current change (%, negative = inhibition) at 1uM” value rises from 12.2% to 12.8%.

Going from `COc1ccc(CCNC(=O)C2CCCN(C(=O)N(C)C)C2)c(OC)c1` (stereo not drawn) to `CCC1CCCCN1S(=O)(=O)c1ccc2c(c1)CCN2C(=O)C1CCC1` (stereo not drawn), the “hERG current change (%, negative = inhibition) at 1uM” value falls from 12.5% to 5.13%.

Going from `Cn1c(SCC(=O)c2ccc3c(c2)OCO3)nnc1-c1ccccn1` to `CC(NC(=O)c1ccccc1Br)c1nnc(SCC(=O)NC2=NCCS2)n1C` (stereo not drawn), the “hERG current change (%, negative = inhibition) at 1uM” value rises from 7.92% to 12.6%.

Compared with `Cc1cc(N2CCN(C(=O)c3ccco3)CC2)n2ncc(-c3ccccc3)c2n1`, `CCc1nn(CCCC(=O)N2CCc3ccccc3C2)c(=O)c2cc3occc3n12` is higher in “hERG current change (%, negative = inhibition) at 1uM” value: -8.34% for the first, -1.94% for the second.

Going from `CCc1cc2cc(C(=O)Nc3ccccc3F)sc2s1` to `Cc1cc(C(=O)NNCc2ccccc2)no1`, the “hERG current change (%, negative = inhibition) at 1uM” value rises from -4.09% to 0.722%.

Going from `CCN(CC)C(=O)Cn1c(=O)n(-c2ccccc2)c(=O)c2sccc21` to `CCOC(=O)Cn1c(C(=O)OCC)cc2sccc21`, the “hERG current change (%, negative = inhibition) at 1uM” value rises from 9.95% to 12.7%.

Compared with `OC(c1ccccn1)C1CCN(Cc2nc(C(c3ccccc3)c3ccccc3)no2)CC1` (stereo not drawn), `CN(C)C(CNC(=O)c1ccc(C(=O)c2ccccc2)cc1)c1ccccc1` (stereo not drawn) is higher in “hERG current change (%, negative = inhibition) at 1uM” value: -5.42% for the first, 11.9% for the second.

First: CCN(CC)CCCNC(=O)Cn1cc2c(n1)CCC(C)C2 (stereo not drawn)
Second: O=C(CCCCCN1C(=O)c2cccc3cccc(c23)C1=O)NCCCO
The “hERG current change (%, negative = inhibition) at 1uM” value of the first is lower: 9.02% for the first, 11.9% for the second.

Compared with `CC1=C(C(=O)OC(C)C)C(c2cccs2)N2C(=O)CCSC2=N1` (stereo not drawn), `Cc1ccc(C)c(NC(=O)CSc2nnc(CNC(=O)c3cccs3)o2)c1` is higher in “hERG current change (%, negative = inhibition) at 1uM” value: 0.598% for the first, 6.04% for the second.

Compared with `Cc1ccc(-n2nnc(-c3cccnc3)n2)cc1`, `Cc1ccc(S(=O)(=O)NN2C(=O)/C(=C/c3cccs3)SC2=S)cc1` is lower in “hERG current change (%, negative = inhibition) at 1uM” value: 11% for the first, 0.665% for the second.

Going from `CCOC(=O)Nc1sc(=S)n(C)c1C` to `CCOC(=O)CC(=O)N/N=C/c1c(N)n(C)c(=O)n(C)c1=O`, the “hERG current change (%, negative = inhibition) at 1uM” value falls from 4.12% to -15.9%.

Going from `CCOC(=O)C(C(=O)OCC)=C1OC(=O)c2ccccc21` to `O=C(COC(=O)CCCSc1nc2ccccc2[nH]1)Nc1ccc(Cl)cc1`, the “hERG current change (%, negative = inhibition) at 1uM” value falls from 3.66% to -4.28%.

Going from `O=C(CCS(=O)(=O)c1ccccc1)NCc1ccccc1` to `O=C(CSc1nc(-c2cccs2)cc(C(F)(F)F)n1)NCc1ccccc1`, the “hERG current change (%, negative = inhibition) at 1uM” value falls from 5.37% to 3.12%.

Going from `c1ccc(CNc2cnccn2)cc1` to `COc1ccc(/C=N/NC(=O)c2cnccn2)cc1O`, the “hERG current change (%, negative = inhibition) at 1uM” value rises from -3.35% to 3.05%.

Compared with `CCc1cc2c(=O)c(-c3cscn3)coc2cc1O`, `Cc1cccc2cc(-c3nc4ccc(C(=O)O)cc4[nH]3)c(=O)oc12` is higher in “hERG current change (%, negative = inhibition) at 1uM” value: 4.59% for the first, 7.84% for the second.

Going from `COc1cccc(/C=C2\CCCCC2=O)c1` to `O=C(O)[C@@H]1CCCN1S(=O)(=O)c1cccc2cccnc12`, the “hERG current change (%, negative = inhibition) at 1uM” value rises from 13.3% to 16.2%.

First: CCCCCCn1c(N)c(C#N)c2ccc([N+](=O)[O-])cc2c1=O
Second: CCN1CCN(C(=O)Cc2coc3cc(C)cc(C)c23)CC1
The “hERG current change (%, negative = inhibition) at 1uM” value of the first is higher: 21.1% for the first, 2.98% for the second.

First: CC12CC3(C)CC(C)(C1)CC(C(=O)NC(=S)N1CCOCC1)(C2)C3
Second: CN(C(=O)CC1C(=O)NCCN1Cc1ccc(F)c(F)c1)C1CCOCC1 (stereo not drawn)
The “hERG current change (%, negative = inhibition) at 1uM” value of the first is lower: 5.29% for the first, 17% for the second.

Going from `O=C(O)C1CCC(c2ccc(-c3ccccc3)cc2)CC1` (stereo not drawn) to `O=C(Oc1ccc(C(=S)N2CCC(O)CC2)cc1)c1ccc(Cl)cc1`, the “hERG current change (%, negative = inhibition) at 1uM” value rises from -0.992% to -0.343%.

First: O=C(CCC(=O)N1CCN(Cc2ccccc2)CC1)Nc1nnc(C2CCCCC2)s1
Second: Cc1ccc(S(=O)(=O)N2CCCCC2)cc1NC(=O)CNc1ccc(C(F)(F)F)cc1
The “hERG current change (%, negative = inhibition) at 1uM” value of the first is higher: 13.6% for the first, 6.44% for the second.

Compared with `CC1=C(C(=O)O)N2C(=O)C(NC(=O)c3nn(C)c(C)c3Cl)C2SC1` (stereo not drawn), `Cc1ccc(C(=O)OCC(=O)Nc2ncc(C(F)(F)F)cc2Cl)cc1NC(=O)c1ccco1` is lower in “hERG current change (%, negative = inhibition) at 1uM” value: 11.3% for the first, -41.7% for the second.
